Test results from article PMC4336329 (PLoS ONE, 2015).
Among all 310,000 compounds or so, about 14,000 (4.5%) showed an effect of 50% or more. Effects have a minus sign here. The list shows a part of the results.

target: human ether-à-go-go-related gene (hERG) potassium channel (human, UniProt Q12809); experiment: primary screen, population patch clamp on CHO cells stably expressing hERG
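Note: peak tail current of the secondary pulse compared with the same well before compound.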

Chain of human ether-à-go-go-related gene (hERG) potassium channel (Q12809 whole entry, looked up): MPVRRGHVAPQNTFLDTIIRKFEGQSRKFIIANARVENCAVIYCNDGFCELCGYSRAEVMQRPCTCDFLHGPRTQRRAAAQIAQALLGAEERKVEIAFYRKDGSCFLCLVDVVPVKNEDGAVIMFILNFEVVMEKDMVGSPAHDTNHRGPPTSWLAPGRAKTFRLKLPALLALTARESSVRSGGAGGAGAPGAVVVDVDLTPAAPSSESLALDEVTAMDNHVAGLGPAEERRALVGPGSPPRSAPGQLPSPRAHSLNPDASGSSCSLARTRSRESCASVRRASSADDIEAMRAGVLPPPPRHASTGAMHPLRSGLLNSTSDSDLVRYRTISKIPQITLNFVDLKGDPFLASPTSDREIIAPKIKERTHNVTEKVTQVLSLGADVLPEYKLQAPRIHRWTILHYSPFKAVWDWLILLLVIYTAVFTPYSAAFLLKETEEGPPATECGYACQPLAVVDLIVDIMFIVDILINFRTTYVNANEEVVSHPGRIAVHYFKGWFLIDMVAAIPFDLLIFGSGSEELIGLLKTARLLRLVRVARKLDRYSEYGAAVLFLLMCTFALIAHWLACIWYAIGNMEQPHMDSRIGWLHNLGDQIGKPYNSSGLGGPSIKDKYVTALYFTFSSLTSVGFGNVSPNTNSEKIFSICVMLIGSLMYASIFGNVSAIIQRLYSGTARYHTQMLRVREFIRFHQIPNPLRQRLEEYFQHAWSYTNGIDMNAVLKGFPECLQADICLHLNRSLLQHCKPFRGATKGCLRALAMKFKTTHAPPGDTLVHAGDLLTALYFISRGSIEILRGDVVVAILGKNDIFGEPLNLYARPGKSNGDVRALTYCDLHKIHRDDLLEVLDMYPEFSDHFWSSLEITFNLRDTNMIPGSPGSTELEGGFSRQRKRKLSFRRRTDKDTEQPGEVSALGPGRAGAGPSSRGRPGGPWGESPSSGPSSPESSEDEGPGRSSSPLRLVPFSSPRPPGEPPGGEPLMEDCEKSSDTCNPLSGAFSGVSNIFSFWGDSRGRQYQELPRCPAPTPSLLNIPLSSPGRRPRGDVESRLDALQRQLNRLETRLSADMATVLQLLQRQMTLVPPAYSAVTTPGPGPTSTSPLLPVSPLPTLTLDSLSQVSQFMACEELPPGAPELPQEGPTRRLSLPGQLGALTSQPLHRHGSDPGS

Structure (SMILES)	hERG current change (%, negative = inhibition) at 10uM
COc1ccc(NS(=O)(=O)c2cccc(C(=O)NNC(=O)c3ccccc3OC)c2)cc1	-16.4%
O=C1CC(N2CCN(Cc3ccc4c(c3)OCO4)CC2)C(=O)N1Cc1ccc(N2CCCC2=O)cc1 (stereo not drawn)	5.51%
CC(=O)OCCNC(=O)c1cc2ccccc2oc1=O	9.06%
O=C(CSc1nnc(-c2ccc([N+](=O)[O-])cc2)o1)Nc1ccccn1	16%
Cc1ccc(S(=O)(=O)N(C)c2ccccc2C(=O)N2CCCC2)cc1	-1.96%
CC(=O)Nc1ccc(NC(=O)CC(C)n2ccnc2)cc1 (stereo not drawn)	7.66%
O=C(CC1(O)C(=O)N(Cc2cccc3ccccc23)c2ccccc21)c1cccnc1 (stereo not drawn)	-17.5%
COc1cc(OC)c(OC)cc1CCC(C)NCCC(c1ccccc1)c1ccccc1.Cl (stereo not drawn)	-71.1%
Cc1c2cnn(CC(=O)N3CCC4(CC3)OCCO4)c(=O)c2c(C)n1Cc1ccc(F)cc1	-7.31%
COc1ccc(-n2c(SCC(=O)Nc3ccc4c(c3)OCO4)nc3c(c2=O)SCC3)cc1	-10.9%
COC1(c2cc(-c3ccccc3)nc(N)n2)CCCCC1	-11.4%
COc1ccc(/C=N/NC(=O)CCn2nnc3ccccc32)cc1	6.87%
C=CCNC(=O)c1ccccc1S(=O)c1ccccc1C#N (stereo not drawn)	9.8%
Cc1ccc2cc3c(NC(=O)c4ccco4)nn(CC(C)C)c3nc2c1	3.99%
Nc1nnc(SCC(=O)NC2CCCc3ccccc32)s1 (stereo not drawn)	5.52%
COc1ccccc1NC(=S)Nc1cccc(F)c1	12.6%
CNC(=O)N(O)C1N(C)C(=O)N(CC(=O)OC)C1(C)C (stereo not drawn)	1.55%
CC(C)(C)c1ccc(-c2c(C(=O)O)c(C(=O)O)c3n2CSC3)cc1	12.8%
Cc1ccc(CNC(=O)c2ccc(NS(=O)(=O)c3c(C)noc3C)cc2)cc1	-6.03%

Structure (SMILES)	hERG current change (%, negative = inhibition) at 10uM
COc1cc(Cl)c(C)cc1Nc1ncccn1	4.73%
Cc1cccn2c(=O)c3cc(C(=O)N4CCN(Cc5ccccc5)CC4)sc3nc12	-79.7%
COc1ccccc1C(=O)NCCC(=O)NCc1ccccn1	-2.66%
COc1ccc(C(=O)N2N=C(c3cccc(OC)c3)CC2(O)C(F)(F)F)cc1 (stereo not drawn)	6.39%
Cc1cc(-c2c(C(=O)N3CCOCC3)c(C)nn2-c2ccccc2)no1	11.7%
CCCCC(=O)NC(=S)Nc1cc([N+](=O)[O-])ccc1OC	-39.9%
Cc1ccc(Nc2nc(C)c3c(n2)CC(C)CC3=O)c(C)c1 (stereo not drawn)	-5.19%
CC(C)Cc1cc(C(=O)Nc2ccc(F)cc2F)no1	-2.85%
O=C(Nc1ccc(Br)cc1)/C(=C/c1cccc([N+](=O)[O-])c1)NC(=O)C1CCCCC1	-16%
CCC(C)n1cnc2c(=O)oc3ccccc3c21 (stereo not drawn)	-12%
N#Cc1ccccc1OCC(=O)Nc1ccccc1C(=O)NC1CC1	-5.44%
Nc1nc(Nc2cccc(F)c2)nc(N2CCOCC2)c1[N+](=O)[O-]	-26.7%
CC(=O)Oc1ccc(Oc2ccc(-c3noc(C)n3)cc2)cc1	18.1%
CC(=NCCN1CCCCC1)c1c(O)[nH]c(=O)[nH]c1=O	-1.06%
Cc1onc(-c2c(F)cccc2Cl)c1C(=O)OCC(=O)NCc1ccco1	5.77%
Cc1ccc(Cl)cc1-n1c(=O)cc(N2CC(C)OC(C)C2)[nH]c1=O (stereo not drawn)	0.474%
O=C(COc1ccccc1Cl)Nc1ccc(CN2CCOCC2)cc1	-22.9%
O=C(O)C1CCCN1c1nc(C(F)(F)F)nc2ccccc12 (stereo not drawn)	12.3%
CCN(C(=O)COC(=O)c1ccc(O)cc1O)c1c(N)n(Cc2ccccc2)c(=O)[nH]c1=O	-7.36%

Structure (SMILES)	hERG current change (%, negative = inhibition) at 10uM
COc1ccc(OC(=O)CCN2C(=O)C3C4C=CC(C4)C3C2=O)cc1 (stereo not drawn)	-7.8%
CCOC(=O)N/N=C/c1c(F)cccc1F	11.2%
c1cc2c3c(cccc3c1)C(N1CCCCC1)=N2	-66.2%
CCOc1ccc(C(C)=O)cc1COC(=O)CN1C(=O)NC2(CCCC2)C1=O	-1.97%
COC(=O)c1cc2sccc2n1CC(=O)N(C)c1ccccc1	15.5%
Cc1cc2ccccc2n2c(SCC(=O)N3CCc4ccccc4C3)nnc12	-31.4%
Cc1cc(C(=O)NC(Cc2c[nH]c3ccccc23)C(=O)O)c(C)o1 (stereo not drawn)	21.2%
CCS(CC)=NS(=O)(=O)c1ccc(NC(C)=O)cc1	-0.197%
COc1cc(OC)nc(NC(=O)CSc2nnc(-c3ccccc3)n2C2CCCCC2)n1	-4.3%
CC(C)(CSc1ccccn1)NS(=O)(=O)c1ccccc1	-10.3%
Cn1cc(C(=O)C(=O)N2CCCC2)c2ccccc21	12.7%
CCN(CC)CCNC(=O)c1ccc(NC(=O)COc2ccccc2F)cc1.Cl	-18.9%
CCOC(=O)C1(Cc2ccccc2C(F)(F)F)CCN(CC(O)CO)CC1 (stereo not drawn)	-3.71%
COc1cccc(-c2nn(-c3ccccc3)cc2/C=C\C(=O)c2cccs2)c1	15.6%
CC(=O)Nc1cccc(NC(=O)CSc2ccc(-c3ccco3)nn2)c1	0.763%
CSC(=NC1CCCCC1)NS(=O)(=O)c1ccccc1	-8.98%
CCc1nn2c(=O)cc(COc3ccc(/C=C4\C(=N)N5N=C(C)SC5=NC4=O)cc3)nc2s1	8.16%
CCOC(=O)c1cn(-c2nc(-c3ccc(Cl)c(Cl)c3)cs2)c2c(F)c(N3CCOCC3)c(F)cc2c1=O	20.5%
Cc1ccccc1NC(=O)NC1CCCCC1C (stereo not drawn)	3.94%
